Sequences and labels used below:
B1: CPEB3 Ribozyme (parent)
chain: UAACAGGGGGCCACAGCAGAAGCGUUCACGUCGCAGCCCCUGUCAGAUUCUGGUGAAUCUGCGAAUUCUGCUGUAUAUCUC

The source gives no read counts; variants with many changes may rest on few reads.

Variants of B1 are the subject of this data set. Briefly: self-cleavage, relative activity (ratio to wild type); higher = more cleavage; in vitro, sequencing. A digest of the protocol: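 CPEB3 self-cleaving ribozyme mutant libraries were made by rounds of error-prone PCR, barcoded, and transcribed in vitro with T7 RNA polymerase for 5 hours at 37°C. Cleavage occurred during transcription and a 15 min DNase I step before EDTA stop. RNAs were reverse transcribed with template switching and Illumina-sequenced, with DNA sequencing mapping barcodes to variants. Relative activity is the variant's cleaved/total read fraction divided by wild type's (minimum 5 reads), averaged across three batches.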
A13G A20U U78A: the self-cleavage amounted to 0.27.
Take A13G A45C G55A: the self-cleavage turned out to be 0.09.
Then A13G A35G U72A, with 0.15; and A13G A35G U41G U76C, with 0.22.
The value for A13G A21G U26G A56U was 0.22.
The value for A13G A20G G46U A56U was 0.11; that for A13G A35G G46A U76A was 0.19.
On to A13G A20G A77U, for which the self-cleavage was 0.61.
Then A13G A20G A21G A28U U72A, with 0.44; and A13G A20G G24A, with 0.39.
In the case of A13G A20G A21G G22C U26C, the self-cleavage was 0.05.
Then A13G A45G U51C, with 0.68; and A13G A35G A56U, with 0.45.
As for A13G A20C A28G, the self-cleavage was determined as 0.5.
The value for A13G A45U A56U U80C was 0.16.
Then A13G A20U U31C U67C, with 0.14; and A13G A28G U43G U72A U74G A75G, with 0.06; and A13G A28C A35U U43C U48C G61U U67A, with 0.08.
The value for A13G A45U U74C A75U A77G was 0.36.
Consider A13G A35G U43C U72C, for which the self-cleavage was determined as 0.35.
Take A13G A35U A75G: the self-cleavage is 0.58.
The value for A13G A56G U58C U74A A75G was 0.23; that for A13G A35G G36C A64G was 0.23.
Then A13G A47G U72G A77G U78C, with 0.27; and A13G A18U U26A C29A U41C U48G, with 0.06; and A13G A35G G42A, with 0.06.
Then A13G A20G A28G U51C A56G U72C A77U, with 0.13.
Consider A13G A18U A20C A28G A35U U41C, for which the self-cleavage is 0.21.
Then A13G A20G C39G U43A U51A, with 0.25.
Then A13G A35G U49C U69G, with 0.48.
The value for A13G A21C C34U U58C was 0.06.
Regarding A13G A21U U31C G42A A57G, the self-cleavage came out at 0.24.
A13G A21G C40G U60A U78C: the self-cleavage was found to be 0.05.
Turning to A13G A35G U58C G61A C71U, the self-cleavage is 0.1.
The value for A13G A21G G33U G55A A77G was 0.13; that for A13G A20G A56G was 0.61.
Then A13G A18U A56G, with 0.24.
Then A13G A20G C37U U60C A65C, with 0.16.
With A13G A28U G52C U72C U76C, the self-cleavage came out at 0.59.
Then A13G A18U A28G A56G A57G U74A, with 0.06.
As to A13G A28G U60A U66C, the self-cleavage worked out at 0.1.
Then A13G A28U U48C U72A U80A, with 0.15; and A13G A28G C68A, with 0.27; and A13G A18U A20G U25C A45C, with 0.09.
Consider A13G A20U A35G U43A U51C, for which the self-cleavage came out at 0.37.
Then A13G A45G U69A U74A, with 0.27; and A13G A28G U49C A56U, with 0.16.
For A13G A47U G52A, the self-cleavage stood at 0.4.
The value for A13G A20U U60C was 0.47; that for A13G A28G A45U U58C was 0.2.
The value for A13G A45G U60C was 1.11.
For A13G A45C A56G U66C U69C, the self-cleavage amounted to 0.22.
The value for A13G A28G C37A U58A U60C U80G was 0.04; that for A13G A35U U41C G46U U60C U78C U80C was 0.07; that for A13G A35G A45C U49C was 0.06.
The value for A13G A21G U69C A77G was 0.09; that for A13G A28G U67C A77G U80C was 0.08; that for A13G A35G U58C U67C was 0.12.
The value for A13G A18U U69A U74A was 1.15; that for A13G A20G U67C was 0.68.
With A13G A35U A56U A64U, the self-cleavage is 0.06.
On to A13G A28G C40G G52A, for which the self-cleavage came to 0.1.
With A13G A18U U48C U54A A56G, the self-cleavage amounted to 0.14.
Then A13G A21G U31G A47G, with 0.11; and A13G A45G U76C, with 0.67; and A13G A20G C37U U49A A56G U60C A65C, with 0.11.
In the case of A13G A21G U26G U51C, the self-cleavage came out at 0.04.
Then A13G A35G U49A U54A U76C U78C, with 0.45.
The value for A13G A21G G52A A56G U72A was 0.24; that for A13G A21G U25C G52A U69C U72A was 0.14.
Then A13G A28G G42A A47U, with 0.06; and A13G A45C G52A, with 0.23.
A13G A28G U49A: the self-cleavage was 0.07.
The value for A13G A18U A56U A64G U67C U76C U80C was 0.35; that for A13G A20G C23U C38U U74C was 0.09; that for A13G A28U U41A G55C was 0.1.
Take A13G A20G U66C: the self-cleavage was found to be 0.38.
Then A13G A20G A28U U48C U69A, with 0.05; and A13G A20G U43C A75U, with 0.36; and A13G A20U A28G C34U U67C, with 0.1.
The value for A13G A18U A35G was 0.23; that for A13G A20G C40A U48C U49C was 0.4; that for A13G A45G U66C was 0.28.
Then A13G A20U U43A, with 0.23; and A13G A35G U58C U78A, with 0.23.
As for A13G A18U U25C U26A A45G, the self-cleavage turned out to be 0.31.
Then A13G A21G U49C, with 0.27; and A13G A28U A47G, with 0.55.
The value for A13G A21G U49C U51A was 0.21; that for A13G A21U U41A A65G U78A was 0.06.
The value for A13G A20G C40U A65G U76A A77U was 0.04.
As for A13G A47G A64G U72G, the self-cleavage worked out at 0.24.
Then A13G A18U A64U U72C, with 0.16; and A13G A21U A45G, with 0.24.
The value for A13G A18U A28U U80A was 0.21; that for A13G A20U U25C C37A was 0.08; that for A13G A20U U51A U67C was 0.12.
Take A13G A18U U25C A47G A57G: the self-cleavage was 0.38.
The value for A13G A45G U49G was 0.18; that for A13G A18U A28G U41A U54A A56U was 0.22.
For the variant A13G A56G C68G A75G U78C, the self-cleavage is 0.08.
The value for A13G A21U U43C U54C U60C was 0.19; that for A13G A35U A56G U72C was 0.64.
Then A13G A47G U48G, with 0.18.
Turning to A13G A35C U49C C62U U74A C79U, the self-cleavage is 0.11.
Consider A13G A21G A28U A56G C59G A64G, for which the self-cleavage was 0.13.
The value for A13G A45U A77G was 0; that for A13G A35U A57G U67C U80C was 0.1; that for A13G A21G U31A was 0.51.
The value for A13G A21G A45G G73U U74C U78C was 0.23; that for A13G A45G U58C A64G was 0.08; that for A13G A21G A28G C29U U43C U72A U78C was 0.01.
The value for A13G A21G A47G U72C was 0.45; that for A13G A47G U51A was 0.67.
Turning to A13G A20G U26C U80C, the self-cleavage is 0.58.
The value for A13G A18U A28U U66C was 0.1; that for A13G A21G U31A A35G U48C U72C was 0.08.
Then A13G A28G C37G U67C U78C, with 0.05; and A13G A20G U51C U72A, with 0.28.
Then A13G A21G A75U, with 0.26; and A13G A35G A64U, with 0.27.
For the variant A13G A35G A64G, the self-cleavage is 0.53.
Then A13G A47U U78C, with 0.28.
The value for A13G A45U U69C A77U C79A was 0.29; that for A13G A21G A28G C39G A77G was 0.05; that for A13G A18U U54A A56U U76A was 0.16.
Take A13G A20U C39A: the self-cleavage was 0.21.
The value for A13G A20G U26C A35G A47U U58C U78C was 0; that for A13G A21G U51C A77G was 0.29.
Then A13G A45U U72A, with 0.2.
Then A13G A56G U69A U78G, with 0.32.
For the variant A13G A56U G70A C71A, the self-cleavage was found to be 0.16.
Consider A13G A21U U25C, for which the self-cleavage was found to be 0.09.
The value for A13G A20G U26A U80C was 0.48; that for A13G A35U U69A U72C was 0.15.
Then A13G A21U U43C U72C, with 0.06; and A13G A21G U43G U48C U60A, with 0.18.
Then A13G A21G U25C A28C, with 0.38; and A13G A45G U78C, with 0.54; and A13G A21U U31C U41C U72A U80C, with 0.38.
Turning to A13G A20G A28U U43C A75U, the self-cleavage was determined as 0.28.
As for A13G A21G U25C U66C, the self-cleavage was 0.35.
Then A13G A20G A56G U78C, with 0.48.
As to A13G A21G U41C, the self-cleavage is 0.42.
With A13G A47G U58C, the self-cleavage was 0.81.
The value for A13G A28U A45G U54C G55A U76G was 0.09; that for A13G A20U G42U G55C was 0.05; that for A13G A21G A45U U80C was 0.15.
The value for A13G A18U A47G U54C U58C C71A was 0.13; that for A13G A28U A35G A45C U76A was 0.13; that for A13G A20G U26G was 0.35.
Then A13G A20G U26A, with 0.43; and A13G A28G U51A U80C, with 0.2.
Turning to A13G A56U U60C U80C, the self-cleavage worked out at 0.17.
Then A13G A20G U41A U69C U80C, with 0.2; and A13G A47G U49C A57G U78G, with 0.33; and A13G A45U A47U, with 0.19.
The value for A13G A21G A28U was 0.36; that for A13G A20G G33A G36A U74A was 0.06; that for A13G A20G C37U A56G U60C A65C was 0.09.
As to A13G A21G G24C C59A G61C U78C U80C, the self-cleavage worked out at 0.07.
The value for A13G A21G C39A was 0.32; that for A13G A35G U41C G63A U69C was 0.15; that for A13G A35G A65U U69C U80A was 0.16.
For the variant A13G A21G C44U A57G, the self-cleavage was 0.04.
Take A13G A21G A64G: the self-cleavage worked out at 0.24.
The value for A13G A21G A64C was 0.09.

(Values after the RNAGym collection of RNA variant scans (doi:10.1093/nar/gkz1192).)
